This note sets out measurements from paper PMC9911399, “Two distinct binding modes provide the RNA-binding protein RbFox with extraordinary sequence specificity”.

Residue numbers refer to the chain shown, from its start. Some of the results follow.

First the molecules themselves.
T1: RBFOX1 RRM RbFoxmut (Fox-RRM*) (Homo sapiens, UniProt Q9NWB1 109-208, R118D;E147R;N151S;E152T)
T1 sequence: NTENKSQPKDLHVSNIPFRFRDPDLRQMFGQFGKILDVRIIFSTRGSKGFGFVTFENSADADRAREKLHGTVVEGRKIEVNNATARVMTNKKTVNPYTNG

B1: AUACCGC (DNA:RNA)
RNA: GGGAGACCGGAAUUCAGAUUGUCCAUACCGCUUAAAUCCCGUCGUAGCCACCA
DNA 1: CAATCTGAATTCCGGTCTCCC
DNA 2: TGGTGGCTACGACGGGATT
B2: GCUAGGA (DNA:RNA)
RNA: B1 RNA with A25G, U26C, A27U, C28A, C29G, C31A
DNA 1: CAATCTGAATTCCGGTCTCCC
DNA 2: TGGTGGCTACGACGGGATT
B3: CAGUCGG (DNA:RNA)
RNA: B1 RNA with A25C, U26A, A27G, C28U, C31G
DNA 1: CAATCTGAATTCCGGTCTCCC
DNA 2: TGGTGGCTACGACGGGATT
B4: ACGUUCU (DNA:RNA)
RNA: B1 RNA with U26C, A27G, C28U, C29U, G30C, C31U
DNA 1: CAATCTGAATTCCGGTCTCCC
DNA 2: TGGTGGCTACGACGGGATT
B5: GUAUCCA (DNA:RNA)
RNA: B1 RNA with A25G, C28U, G30C, C31A
DNA 1: CAATCTGAATTCCGGTCTCCC
DNA 2: TGGTGGCTACGACGGGATT
B6: UCCAGGG (DNA:RNA)
RNA: B1 RNA with A25U, U26C, A27C, C28A, C29G, C31G
DNA 1: CAATCTGAATTCCGGTCTCCC
DNA 2: TGGTGGCTACGACGGGATT
B7: UAGUUAU (DNA:RNA)
RNA: GGGAGACCGGAAUUCAGAUUGUCCUAGUUAUUUAAAUCCCGUCGUAGCCACCA
DNA 1: CAATCTGAATTCCGGTCTCCC
DNA 2: TGGTGGCTACGACGGGATT
B8: UGAUUUU (DNA:RNA)
RNA: B7 RNA with A26G, G27A, A30U
DNA 1: CAATCTGAATTCCGGTCTCCC
DNA 2: TGGTGGCTACGACGGGATT
B9: AUCAUUG (DNA:RNA)
RNA: B1 RNA with A27C, C28A, C29U, G30U, C31G
DNA 1: CAATCTGAATTCCGGTCTCCC
DNA 2: TGGTGGCTACGACGGGATT
B10: GAAUUUA (DNA:RNA)
RNA: B7 RNA with U25G, G27A, A30U, U31A
DNA 1: CAATCTGAATTCCGGTCTCCC
DNA 2: TGGTGGCTACGACGGGATT
B11: CAGCCAC (DNA:RNA)
RNA: B1 RNA with A25C, U26A, A27G, G30A
DNA 1: CAATCTGAATTCCGGTCTCCC
DNA 2: TGGTGGCTACGACGGGATT
B12: AGCCUAU (DNA:RNA)
RNA: B7 RNA with U25A, A26G, G27C, U28C
DNA 1: CAATCTGAATTCCGGTCTCCC
DNA 2: TGGTGGCTACGACGGGATT
B13: UACACCC (DNA:RNA)
RNA: B1 RNA with A25U, U26A, A27C, C28A, G30C
DNA 1: CAATCTGAATTCCGGTCTCCC
DNA 2: TGGTGGCTACGACGGGATT
B14: GUCUUUC (DNA:RNA)
RNA: B1 RNA with A25G, A27C, C28U, C29U, G30U
DNA 1: CAATCTGAATTCCGGTCTCCC
DNA 2: TGGTGGCTACGACGGGATT
B15: AGGGUAU (DNA:RNA)
RNA: B7 RNA with U25A, A26G, U28G
DNA 1: CAATCTGAATTCCGGTCTCCC
DNA 2: TGGTGGCTACGACGGGATT
B16: GGGACAA (DNA:RNA)
RNA: B7 RNA with U25G, A26G, U28A, U29C, U31A
DNA 1: CAATCTGAATTCCGGTCTCCC
DNA 2: TGGTGGCTACGACGGGATT
B17: GUACUCU (DNA:RNA)
RNA: B1 RNA with A25G, C29U, G30C, C31U
DNA 1: CAATCTGAATTCCGGTCTCCC
DNA 2: TGGTGGCTACGACGGGATT
B18: CAUUCGG (DNA:RNA)
RNA: B1 RNA with A25C, U26A, A27U, C28U, C31G
DNA 1: CAATCTGAATTCCGGTCTCCC
DNA 2: TGGTGGCTACGACGGGATT
B19: UAGAUUC (DNA:RNA)
RNA: B7 RNA with U28A, A30U, U31C
DNA 1: CAATCTGAATTCCGGTCTCCC
DNA 2: TGGTGGCTACGACGGGATT
B20: UUCGUGC (DNA:RNA)
RNA: B1 RNA with A25U, A27C, C28G, C29U
DNA 1: CAATCTGAATTCCGGTCTCCC
DNA 2: TGGTGGCTACGACGGGATT
B21: CACGAGU (DNA:RNA)
RNA: B7 RNA with U25C, G27C, U28G, U29A, A30G
DNA 1: CAATCTGAATTCCGGTCTCCC
DNA 2: TGGTGGCTACGACGGGATT
B22: GGAGUAC (DNA:RNA)
RNA: B1 RNA with A25G, U26G, C28G, C29U, G30A
DNA 1: CAATCTGAATTCCGGTCTCCC
DNA 2: TGGTGGCTACGACGGGATT
B23: CUUGAAA (DNA:RNA)
RNA: B1 RNA with A25C, A27U, C28G, C29A, G30A, C31A
DNA 1: CAATCTGAATTCCGGTCTCCC
DNA 2: TGGTGGCTACGACGGGATT
B24: CCUACCG (DNA:RNA)
RNA: B1 RNA with A25C, U26C, A27U, C28A, G30C, C31G
DNA 1: CAATCTGAATTCCGGTCTCCC
DNA 2: TGGTGGCTACGACGGGATT
B25: AUUAUGC (DNA:RNA)
RNA: B1 RNA with A27U, C28A, C29U
DNA 1: CAATCTGAATTCCGGTCTCCC
DNA 2: TGGTGGCTACGACGGGATT
B26: GGCCCCU (DNA:RNA)
RNA: B1 RNA with A25G, U26G, A27C, G30C, C31U
DNA 1: CAATCTGAATTCCGGTCTCCC
DNA 2: TGGTGGCTACGACGGGATT
B27: UGCUAAA (DNA:RNA)
RNA: B7 RNA with A26G, G27C, U29A, U31A
DNA 1: CAATCTGAATTCCGGTCTCCC
DNA 2: TGGTGGCTACGACGGGATT
B28: ACCUCAG (DNA:RNA)
RNA: B1 RNA with U26C, A27C, C28U, G30A, C31G
DNA 1: CAATCTGAATTCCGGTCTCCC
DNA 2: TGGTGGCTACGACGGGATT
B29: AUUGCAA (DNA:RNA)
RNA: B1 RNA with A27U, C28G, G30A, C31A
DNA 1: CAATCTGAATTCCGGTCTCCC
DNA 2: TGGTGGCTACGACGGGATT
B30: GUUCUGC (DNA:RNA)
RNA: B1 RNA with A25G, A27U, C29U
DNA 1: CAATCTGAATTCCGGTCTCCC
DNA 2: TGGTGGCTACGACGGGATT
B31: CGUCAAC (DNA:RNA)
RNA: B1 RNA with A25C, U26G, A27U, C29A, G30A
DNA 1: CAATCTGAATTCCGGTCTCCC
DNA 2: TGGTGGCTACGACGGGATT

The target of the assay is T1, RBFOX1 RRM RbFoxmut (Fox-RRM*). Nature of the assay: EMSA; HiTS-Eq, 1 nM pool, 10 min; buffer printed only for the single-RNA assays: 10 mM Tris pH 7.5, 150 mM NaCl, 3.4 mM EDTA, 0.001% NP-40, 30 C. The note with it: tags: His6 N-terminal (pET28a); label: 5' 32P. A digest of the protocol: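 Purified RbFox RRM (wild type or mutant) was equilibrated for 10 min in 50 µL with 1 nM of a 5′-radiolabelled pool of RNA with 7 randomized nucleotides, its flanks annealed to DNA oligonucleotides, across increasing protein concentrations. Free RNA was separated by 8% native PAGE, excised, reverse-transcribed, PCR-barcoded and sequenced on an Illumina HiSeq 2500. Relative association constants came from read-count changes of each variant against the control reaction, normalised to the cognate motif.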
Consider B1, for which the binding signal was 0.107 KA relative to UGCAUGU.

For B2, the binding signal was 0.0659 KA relative to UGCAUGU.

Take B3: the binding signal was 0.0726 KA relative to UGCAUGU.

B4: the binding signal was 0.0626 KA relative to UGCAUGU.

Turning to B5, the binding signal was 0.154 KA relative to UGCAUGU.

For B6, the binding signal is 0.09 KA relative to UGCAUGU.

With B7, the binding signal was 0.123 KA relative to UGCAUGU.

Consider B8, for which the binding signal is 0.079 KA relative to UGCAUGU.

Turning to B9, the binding signal was 0.136 KA relative to UGCAUGU.

As for B10, the binding signal is 0.136 KA relative to UGCAUGU.

With B11, the binding signal is 0.0877 KA relative to UGCAUGU.

Take B12: the binding signal was 0.0856 KA relative to UGCAUGU.

As for B13, the binding signal was 0.0668 KA relative to UGCAUGU.

On to B14, for which the binding signal is 0.059 KA relative to UGCAUGU.

In the case of B15, the binding signal was 0.156 KA relative to UGCAUGU.

Take B16: the binding signal was 0.044 KA relative to UGCAUGU.

As for B17, the binding signal was 0.0878 KA relative to UGCAUGU.

On to B18, for which the binding signal is 0.0659 KA relative to UGCAUGU.

In the case of B19, the binding signal was 0.0894 KA relative to UGCAUGU.

As to B20, the binding signal was 0.134 KA relative to UGCAUGU.

Take B21: the binding signal is 0.15 KA relative to UGCAUGU.

On to B22, for which the binding signal was 0.0876 KA relative to UGCAUGU.

Consider B23, for which the binding signal is 0.0838 KA relative to UGCAUGU.

Regarding B24, the binding signal is 0.0983 KA relative to UGCAUGU.

For B25, the binding signal was 0.129 KA relative to UGCAUGU.

On to B26, for which the binding signal is 0.0476 KA relative to UGCAUGU.

For the molecule B27, the binding signal is 0.0931 KA relative to UGCAUGU.

With B28, the binding signal is 0.137 KA relative to UGCAUGU.

As to B29, the binding signal is 0.0795 KA relative to UGCAUGU.

With B30, the binding signal is 0.0664 KA relative to UGCAUGU.

In the case of B31, the binding signal was 0.0588 KA relative to UGCAUGU.
